System: transferred T cells in mice bearing B16-mhgp100 tumors
Experiment: Persistence in spleen on day 10, control/citrate/potassium hydroxycitrate cultures
Details: day 10 after transfer, gated on CD8+Ly5.1, vehicle 7.9

## O=C(O)CC(O)(CC(=O)O)C(=O)O [Citrate, reference compound]
  percentage of cells CD45.1 positive/CD45.2 negative: 19.4%

## O=C([O-])CC(O)(C(=O)[O-])C(O)C(=O)[O-].[K+].[K+].[K+] (centres unmarked) [Potassium hydroxycitrate, potassium hydroxycitrate]
  percentage of cells CD45.1 positive/CD45.2 negative: 42.5%
